Data taken from PubChem BioAssay AID686970 (National Center for Advancing Translational Sciences (NCATS), 2013).
Hit rate of the full screen: of about 360,000 compounds, about 6,000 (1.7%) were called active. Inconclusive means that the source gave no clear call. Such entries were picked first, then a sample of the others. The call rests on the fitted dose curve; in most records, active means well fitted cell-killing curve with a large enough effect; inconclusive means small, poorly fitted or top-dose-only effect, or effect the other way; inactive means flat fitted curve, though single readings scatter. No potency is given beside an inconclusive call; the fits are too rough.

Assay: qHTS for induction of synthetic lethality in tumor cells producing 2HG: qHTS for the HT-1080-NT fibrosarcoma cell line;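 further: NT is the 2HG producing partner of a matched IDH1 knockdown line; nearly all actives have a fitted effect of over 55% in size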;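 on activity, negative = less viability: 0% = DMSO-treated cells and -100% = media-only wells without cells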
Details: HT-1080-NT fibrosarcoma viability, CellTiter-Glo ATP luminescence, 48 h; activity, negative = less viability: at 46.1 µM (top of the series) unless noted
Summary of the method: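 750 cells/well, RPMI + 5% FBS; 2 h settle, compound pin-transfer, 48 h at 37 degrees C. CellTiter-Glo 10 min RT, luminescence. Normalized to DMSO and media-only wells.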
Potency means the concentration at half of the fitted maximal effect; tags describe the fitted curve by direction and shape.

Row | Compound | Potency | activity, negative = less viability
1 | Cc1ccc(S(=O)(=O)N2CCCCC2CCNC(=O)C(=O)NCc2ccccc2)cc1 (stereo unspecified) | active: 7.31 µM | –
2 | COc1cc(CNCc2ccccn2)ccc1OCc1ccc(Cl)c(Cl)c1 | inconclusive [cytotoxic, single point] | –
3 | CCN1CCCC1CNC(=O)c1ccc2c(c1)N(Cc1cccc(Cl)c1)C(=O)c1ccccc1S2(=O)=O (stereo unspecified) | inconclusive [cytotoxic, single point] | –
4 | Cc1[nH]c2ccccc2c1/C=N/n1cnnc1 | inactive | –
5 | COc1ccc2cc3cc(C(=O)NCc4cccs4)oc3nc2c1 | inconclusive [cytotoxic, single point] | –
6 | COC(=O)c1ccc(NCc2cc(O)ccc2O)cc1 | active: 16.4 µM | –
7 | COc1ccc(COc2cc(-c3cccc(OC)c3)nc3ccc(N)cc23)cc1 | active: 0.82 µM | –
8 | CCOC(=O)c1cnc2c(-c3cccc(Br)c3)cnn2c1C | inconclusive [rising, partial curve] | –
9 | O=C(O)c1ccc(CNC(=O)C2CCCN2C(=O)OCc2ccccc2)cc1 (stereo unspecified) | – | inconclusive: 23.4%
10 | COCCCNC(=O)Cc1c(C)c2c(cc(C)c3c(C(C)(C)C)coc32)oc1=O | active: 4.11 µM | –
11 | CCOc1cc(C(=O)CCC(=O)OCC(=O)N2c3ccccc3NC(=O)C2(C)C)ccc1O | inactive | –
12 | NS(=O)(=O)c1ccc(NC(=O)c2cc(-c3cccs3)nc3ccccc23)cc1 | inconclusive [cytotoxic, partial curve] | –
13 | CN(C)S(=O)(=O)c1cccc(NC(=O)c2cccc(S(=O)(=O)N3CCc4ccccc43)c2)c1 | inconclusive [cytotoxic, single point] | –
14 | Cc1cc(NCC2CCCCC2)nc2ccccc12 | inconclusive [cytotoxic, single point] | –
15 | COc1ccc(NC(=O)c2cccc(S(=O)(=O)N3CCOCC3)c2)cc1 | inactive | –
16 | N/C(=N\OS(=O)(=O)c1ccc(Cl)cc1)c1ccccn1 | inactive | –
17 | CCc1nc2c(OCc3ccc(OC(F)F)cc3)cccn2c1N(C)C(=O)c1ccc(OC)cc1 | inconclusive [cytotoxic, single point] | –
18 | CC(=O)Nc1nc(C)c(-c2csc(Nc3ccc(S(N)(=O)=O)cc3)n2)s1 | inconclusive [cytotoxic, partial curve] | –
19 | COc1ccc(-c2cc(C)no2)cc1S(=O)(=O)NCC1CCN(Cc2cc(C)ccc2C)CC1 | inconclusive [cytotoxic, single point] | –
20 | CC(C)(Cc1ccc(O)cc1)NC(=O)CC(=O)N/N=C/c1ccc(Cl)cc1 | inconclusive [cytotoxic, single point] | –
21 | COC(=O)C(C)(C)ONC(=O)Nc1ccc(Br)cc1 | inactive | –
22 | CC(Nc1nc(-c2ccccc2O)nc2ccccc12)c1ccccc1 (stereo unspecified) | inconclusive [cytotoxic, partial curve] | –
23 | CC1(c2ccc3ccccc3c2)NC(=O)N(CC(=O)N2CCN(Cc3ccccc3)CC2)C1=O (stereo unspecified) | active: 5.8 µM | –

Row | Compound | Potency | activity, negative = less viability
24 | COc1ccc(S(=O)(=O)N2C[C@H]3CON(C)[C@H]3C[C@H]2c2ccc(-c3cc4ccccc4o3)cc2)cc1 | inconclusive [cytotoxic, full curve, poor fit] | –
25 | COc1ccc(C2(CNC(=O)c3ccc(OC)c([N+](=O)[O-])c3)CCCCC2)cc1OC | inactive | –
26 | C=CCOc1ccc(CN(C)C(=O)c2ccc(CNS(=O)(=O)c3ccc(C)c(C)c3)cc2)cc1 | inconclusive [cytotoxic, single point] | –
27 | Cc1cc(O)c(NC(=O)c2cc([N+](=O)[O-])ccc2Cl)cc1C | inconclusive [cytotoxic, single point] | –
28 | CC(=O)Nc1ccc(NC(=O)CCCCCN2C(=O)c3ccccc3C2=O)cc1 | inactive | –
29 | CCOC(=O)N1CCN(C(=O)c2oc3ccc(S(=O)(=O)N4CC(C)CC(C)C4)cc3c2C)CC1 (stereo unspecified) | inactive | –
30 | C=CCn1c(C(C)NC(=O)c2ccccc2)n[nH]c1=S (stereo unspecified) | inconclusive [cytotoxic, single point] | –
31 | COc1ccc(CCN2C(=O)c3[nH]nc(-c4ccccc4O)c3C2c2ccccc2)cc1OC (stereo unspecified) | inconclusive [cytotoxic, single point] | –
32 | COC(=O)/C(=C\Nc1ccc(Cl)cc1Cl)NC(=O)c1ccc(Cl)cc1Cl | inconclusive [cytotoxic, partial curve] | –
33 | CCCCOC(=O)c1ccc(NC(=O)C(=O)CC(=O)c2ccc(OC)cc2)cc1 | inactive | –
34 | CC(C)(C)c1ccc(-n2ncc3c2CCCC3NC(=O)C2(C(N)=O)CC2)cc1 (stereo unspecified) | – | inconclusive: -30% [cytotoxic]
35 | COc1ccc2c(c1)-c1ccccc1S(=O)(=O)N2C(C)=O | inconclusive [cytotoxic, full curve, poor fit] | –
36 | COc1ccc(NC(=O)C#Cc2ccccc2)cc1OC | inconclusive [cytotoxic, single point] | –
37 | O=C(CN1C(=O)c2cccc3cccc(c23)C1=O)N1CCOCC1 | inactive | –
38 | CCCn1ncc(/C=N/O)c1C | inactive | –
39 | O=C1c2ccccc2C(=O)N1CCn1ccnc1 | inconclusive [rising, single point] | –
40 | CC(C)Cc1nnc(NC(=O)CCC(=O)N2CCN(c3ccc([N+](=O)[O-])cc3)CC2)s1 | – | inconclusive: 9.99%
41 | CC(C)(C)Cc1c(-c2ccc(Cl)cc2)nc2ccc(Cl)cn12 | inconclusive [cytotoxic, single point] | –
42 | O=S1(=O)CC(N2CCN(Cc3ccccc3F)CC2)CN1Cc1cn(Cc2cccc(Cl)c2)nn1 (stereo unspecified) | inactive | –
43 | Fc1ccc(CCNC(=S)Nc2ccc(F)c(Cl)c2)cc1 | inconclusive [cytotoxic, single point] | –
44 | O=[N+]([O-])c1ccc(Sc2ccncn2)c([N+](=O)[O-])c1 | active: 18.4 µM | –
45 | CCCc1nc2ccc(C(=O)OC)cn2c1Cc1ccccc1C(F)(F)F | inconclusive [cytotoxic, single point] | –
46 | C=CSc1sc(Cl)c(N2CCOCC2)c1[N+](=O)[O-] | inconclusive [cytotoxic, single point] | –
